Changes are numbered by the printed parent chain; changes in the protein carry UniProt numbers. This is one part of the list.

T1: RBFOX1 RRM (Homo sapiens, UniProt Q9NWB1 109-208)
T1 sequence: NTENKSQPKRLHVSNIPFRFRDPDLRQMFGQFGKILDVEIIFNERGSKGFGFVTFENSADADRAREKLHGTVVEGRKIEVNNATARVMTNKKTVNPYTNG

B1: GCAGAAC (DNA:RNA)
RNA: GGGAGACCGGAAUUCAGAUUGUCCGCAGAACUUAAAUCCCGUCGUAGCCACCA
DNA 1: CAATCTGAATTCCGGTCTCCC
DNA 2: TGGTGGCTACGACGGGATT
B2: UUUGGCA (DNA:RNA)
RNA: B1 RNA with G25U, C26U, A27U, A29G, A30C, C31A
DNA 1: CAATCTGAATTCCGGTCTCCC
DNA 2: TGGTGGCTACGACGGGATT
B3: AGUUACC (DNA:RNA)
RNA: B1 RNA with G25A, C26G, A27U, G28U, A30C
DNA 1: CAATCTGAATTCCGGTCTCCC
DNA 2: TGGTGGCTACGACGGGATT
B4: AACAGUC (DNA:RNA)
RNA: B1 RNA with G25A, C26A, A27C, G28A, A29G, A30U
DNA 1: CAATCTGAATTCCGGTCTCCC
DNA 2: TGGTGGCTACGACGGGATT
B5: GAAGGAU (DNA:RNA)
RNA: B1 RNA with C26A, A29G, C31U
DNA 1: CAATCTGAATTCCGGTCTCCC
DNA 2: TGGTGGCTACGACGGGATT
B6: UCUGAGG (DNA:RNA)
RNA: B1 RNA with G25U, A27U, A30G, C31G
DNA 1: CAATCTGAATTCCGGTCTCCC
DNA 2: TGGTGGCTACGACGGGATT
B7: GUGUUUU (DNA:RNA)
RNA: B1 RNA with C26U, A27G, G28U, A29U, A30U, C31U
DNA 1: CAATCTGAATTCCGGTCTCCC
DNA 2: TGGTGGCTACGACGGGATT
B8: AUGAGAA (DNA:RNA)
RNA: B1 RNA with G25A, C26U, A27G, G28A, A29G, C31A
DNA 1: CAATCTGAATTCCGGTCTCCC
DNA 2: TGGTGGCTACGACGGGATT
B9: UAAGGCU (DNA:RNA)
RNA: B1 RNA with G25U, C26A, A29G, A30C, C31U
DNA 1: CAATCTGAATTCCGGTCTCCC
DNA 2: TGGTGGCTACGACGGGATT

The target of the assay is T1, RBFOX1 RRM. The assay can be described thus: EMSA; HiTS-Eq, 1 nM pool, 10 min; buffer printed only for the single-RNA assays: 10 mM Tris pH 7.5, 150 mM NaCl, 3.4 mM EDTA, 0.001% NP-40, 30 C. The settings on record: tags: His6 N-terminal (pET28a); label: 5' 32P. The essentials: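 A pool of RNA with 7 randomized nucleotides, 5′-radiolabelled and with DNA-annealed flanks, was equilibrated at 1 nM for 10 min in 50 µL with purified RbFox RRM, wild type or mutant, across increasing protein concentrations. Free RNA was separated by 8% native PAGE, excised, reverse-transcribed, barcoded by PCR and sequenced. Relative association constants were obtained from read-count changes of each RNA species versus the control reaction and normalised to the cognate motif.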
Take B1: the binding signal was 0.00845 KA relative to UGCAUGU.

With B2, the binding signal is 0.0195 KA relative to UGCAUGU. The same measure for B3: 0.00334 KA relative to UGCAUGU. In the case of B4 it was 0.00592 KA relative to UGCAUGU. In the case of B5 it was 0.00434 KA relative to UGCAUGU; in that of B6, 0.00717 KA relative to UGCAUGU. Regarding B7, the binding signal is 0.0201 KA relative to UGCAUGU. The same measure for B8: 0.00671 KA relative to UGCAUGU; for B9: 0.0114 KA relative to UGCAUGU.

Values taken from article PMC9911399, “Two distinct binding modes provide the RNA-binding protein RbFox with extraordinary sequence specificity”.
